From the supplement of paper PMC3334620
The full ranking holds about 33,000 sequences; the median of “E-score (-0.5 to 0.5)” is about -0.035, and the highest 2% start at about 0.34. The list shows a part of the results.

target: T1, Mot3 (UniProt P54785); experiment: PBM E-score (8-mer binding enrichment) (E-score (-0.5 to 0.5)); higher = stronger / more preferred TF binding; most listed sequences are background and not binding sites; settings: protein concentration: 200 nM; construct: GST-full length
T1 sequence: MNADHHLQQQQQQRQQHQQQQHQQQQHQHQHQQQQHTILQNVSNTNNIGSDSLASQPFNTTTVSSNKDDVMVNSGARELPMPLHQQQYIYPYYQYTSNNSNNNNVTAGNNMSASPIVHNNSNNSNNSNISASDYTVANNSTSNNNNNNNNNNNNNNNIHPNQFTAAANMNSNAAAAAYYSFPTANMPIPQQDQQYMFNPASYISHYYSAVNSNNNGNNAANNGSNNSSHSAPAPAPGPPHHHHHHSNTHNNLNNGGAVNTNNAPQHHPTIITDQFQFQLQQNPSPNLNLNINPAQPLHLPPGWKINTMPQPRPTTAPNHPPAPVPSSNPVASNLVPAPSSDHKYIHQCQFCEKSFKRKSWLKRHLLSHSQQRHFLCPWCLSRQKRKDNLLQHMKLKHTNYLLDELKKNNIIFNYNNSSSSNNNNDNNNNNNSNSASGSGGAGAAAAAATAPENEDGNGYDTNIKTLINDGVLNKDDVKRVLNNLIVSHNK
Experimental: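 Universal 'all 10-mer' protein binding microarrays (Agilent AMADID 015681) probed with GST-tagged S. cerevisiae TFs (full-length or DBD) made by in vitro transcription/translation (PURExpress), about 100-200 nM. Bound TF was detected with fluorescent anti-GST. Each ungapped 8-mer (which stands for itself and its reverse complement) is scored by the PBM enrichment score (E-score), a modified Wilcoxon-Mann-Whitney statistic from -0.5 to +0.5, computed with the Universal PBM Analysis Suite. Scale: above 0.35 generally sequence-specific binding.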

Sequence	PBM E-score
ATCCAGCC	-0.162
TAACGTAA	0.238
CCCGGACA	-0.107
TAGATTCA	0.0881
GTGCCGTA	-0.114
GGTACGCA	0.184
CTTTTAAC	0.179
GTGCGTCA	-0.09
CAACTAGC	0.0864
CGGACAGA	-0.168
AGATGGTA	-0.0476
CAAGGGAC	-0.127
CACGGGTA	0.109
ATATCACA	-0.0131
AAACGTAA	0.196
TATTCAGA	0.0385
ATCGTTCC	-0.0114
ACCCTTAG	-0.233
AGCGTCTG	-0.287
CGTGGCGC	-0.105
GCGGGACA	-0.169
AGTTACAT	0.289
CTGCTAAA	-0.0457
AAAGGATG	0.0728
TACCAATA	-0.253

Sequence	PBM E-score
GAGTTCAC	0.0255
AAAAAGCA	0.165
CCCCCTAA	-0.283
TCACTACA	0.211
CCACATAG	-0.075
AAAGTCAC	0.135
AGAACGAC	-0.0101
AAACGAAT	0.0906
CAGTAAGG	-0.0249
CTTAGCGC	0.0443
CAGGTATG	-0.0119
AGTATTGG	-0.132
CGCTCGAC	-0.122
CTCCTGAC	-0.137
TCGGATCA	-0.0262
GGACCGCC	-0.212
ACCGTGCT	-0.11
GATGGGCC	-0.21
ATAGTCCG	-0.0291
GATGAACC	-0.163
CGTCAGCC	-0.16
CGAACAAC	0.158
ATAATACA	0.277
TAAGAGAA	0.0821
TGAACACA	0.249

Sequence	PBM E-score
GATGGCTA	-0.231
AGTCATAG	-0.191
AGGCTAGC	-0.225
AGTTCTAG	-0.215
AACTTCAC	0.206
CCCTTTCG	0.013
ATACTACC	-0.0241
AAAGACAC	0.157
ATGTAACG	0.268
CAGCCAAG	-0.0608
AACTGGGG	-0.146
AGAACTTA	0.0806
CTCTACTC	-0.0283
AAACTAGA	0.0148
GTTAGAGA	-0.15
AATTCCCA	0.0871
AGACCATG	-0.0413
ATAGGTAC	0.406
CTTTCGAA	-0.233
ACCTAGGG	-0.188
CTCTGTGA	0.0651
CGTACCAA	-0.00968
GTGGACGA	-0.178
AAACAGCG	0.0286
ACGTGATG	0.0947

Sequence	PBM E-score
ACCACGAA	-0.00626
AGAGCCGA	-0.136
AGCTTTCC	-0.00795
ATCCGAAC	-0.281
GGCTATTA	0.149
CTAGTACA	0.287
AGGTGAGA	-0.129
ACTGCGCG	-0.24
AAATACTG	-0.108
AGCCGTCG	-0.0837
AGGGAAGA	-0.264
CAAGTATA	0.159
CATACGGG	-0.0526
CACGGAGG	0.221
AGGAAAAC	0.416
CTCACTGC	-0.176
ATGGCAGC	-0.133
AGGGAATC	-0.109
ATAACGAT	-0.0363
CATGTAGG	0.374
ATGGATAA	-0.096
TTTAAAAA	0.0392
GACTATTA	-0.0916
ACCGTCGC	-0.0548
ACGCATAC	0.0884

Sequence	PBM E-score
CTATTGCA	0.0982
ACCTGTGG	0.165
ACATGACT	0.211
CGCAGTCA	0.212
CCATCGAA	-0.218
CACCAGTG	-0.126
CAGACTAG	-0.266
CTCAGGAG	-0.0888
ACGGCTGC	-0.214
CAGTTCCC	-0.174
CAGTTGGG	-0.163
ATAATCGA	-0.0585
AGAGTGGG	-0.334
ACTTCCGC	-0.226
CGCTGGAC	-0.111
AGTTTCAC	-0.0317
CGGAGGGC	-0.229
CTTCAATC	-0.141
ACATTAAT	0.218
CATTGCAC	0.142
CAATTCCC	0.0527
TGCGTCAA	0.0967
TCCGACGA	0.0283
GATTGTCA	-0.019
ATAACCCA	0.0362

Sequence	PBM E-score
AACCTAGC	0.06
AGAGAGAG	-0.326
CCGTTGGA	-0.319
ATTGAGCA	-0.104
AAGCTGTA	0.0641
AGAACCCT	-0.329
CTCCTAGA	-0.21
CAAATAGA	-0.0672
GTACAAGA	0.252
AGCTGTTA	0.0622
ACCCTCGA	-0.134
AAAATGAC	0.00342
GTGCAAAA	0.132
GAACCACC	-0.0832
AGTCAGCG	0.0306
ATCCAGAG	-0.128
ACTGCTGC	-0.23
GTCGGAGA	-0.0601
CTTGACGC	0.0474
TCCCCTAA	-0.214
TCGCAAGA	-0.161
CTTTTGCA	0.143
CACCCAAA	-0.0724
ACCAATAA	-0.00489
CTGCGTAA	0.302

Sequence	PBM E-score
TCCAGGAA	0.316
CCATAGGA	-0.101
AAATTCAG	-0.0726
AGCCGAAT	-0.166
AACGCTGG	-0.181
ACGTATTC	0.182
AGGTACGC	0.444
CCTTATCG	0.221
GCTTCGCC	-0.263
TACGTACA	0.331
AAGTCAGG	-0.0737
ACTTGCGG	-0.136
ACCAGCTG	-0.0736
AAGATAGA	0.034
CAGGTATA	0.0933
GGCCCCAA	-0.119
CGCTAGGC	-0.0267
CATATCAA	0.0245
GCTAGCCC	-0.29
TCGACAAA	0.106
ATTTTCAG	0.071
GGTAAGAA	0.0322
